Measurements as given in patent publication US20070219159A1, “CYCLODEXTRIN COMPOSITIONS AND METHODS OF TREATING VIRAL INFECTIONS” (priority 2002, published 2007).

System: d27-lacZ1 (β-galactosidase expressing recombinant HSV-1)
Conditions: pre- plus post-infection treatment, in situ staining 8-12 hours PI, ACV 400 μg/ml

OC[C@H]1O[C@@H]2O[C@H]3[C@H](O)[C@@H](O)[C@@H](O[C@H]4[C@H](O)[C@@H](O)[C@@H](O[C@H]5[C@H](O)[C@@H](O)[C@@H](O[C@H]6[C@H](O)[C@@H](O)[C@@H](O[C@H]7[C@H](O)[C@@H](O)[C@@H](O[C@H]8[C@H](O)[C@@H](O)[C@@H](O[C@H]1[C@H](O)[C@H]2O)O[C@@H]8CO)O[C@@H]7CO)O[C@@H]6CO)O[C@@H]5CO)O[C@@H]4CO)O[C@@H]3CO [BCD, β-cyclodextrin]
expression of ICP27 promoter driven β-galactosidase reporter gene: almost complete virus protection
expression of ICP27 promoter driven β-galactosidase reporter gene (listed as β-CD): almost totally inhibited

Read-outs that look alike come from different tables or passages of the source.
